In the supplement of paper PMC10126150 one finds switch fluorescence ratio data, which are given here for 120 sequences.

Sequences with one replicate were seen in a single cluster, so their values are uncertain.
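Also: ATP exposure 15 min at 22 °C before imaging.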

This data set deals with ATP. Nature of the data set: switch fluorescence ratio, 500 uM ATP over buffer (Cy3 cluster intensity, sum of 5 cycles each) (fold (ratio)); higher = stronger signal-on switching upon ATP binding; sequences stand for … in TCGTCGGCAGCGTCAGATGTGTATAAGAGACAGTTTTTTTTTTTTTTTTTTTTTTTTT…TC. The conditions noted are these: aptamer strand: ATP DNA aptamer (quencher-CACCTGGGGGAGTATTGCGGAGGAAGG + anchor), 100 nM annealed; ATP concentration: 500 uM; one replicate. The essentials: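 Cy3-labelled switching-strand clusters on a modified Illumina MiSeq flow-cell were annealed to 100 nM quencher-labelled ATP aptamer and imaged first in selection buffer, then after 15 min with 500 uM ATP at 22 °C. NaOH stripping and re-annealing separated each of five buffer/ATP cycles, and clusters outside 100-1000 RFU were excluded. The fluorescence ratio sums target-cycle Cy3 intensity over buffer-cycle Cy3 intensity per cluster and averages it per switch-domain sequence.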
For the sequence ATCTTGGTA, the switch fluorescence ratio came out at 1.01. With CGTCGGACGG, the switch fluorescence ratio is 1.02. In the case of TTTAAGCGAG it was 1.01. Then GAATTATTCT, with 1.06. Then TTGATACGAG, with 1.04; and TGCCAATCGC, with 1.11. As for GAGCGGGACC, the switch fluorescence ratio was 1.02. On to AGATGACCCA, for which the switch fluorescence ratio stood at 0.993. Then TAATCGATGC, with 0.98. Then TACATTCCTG, with 1.02; and TACGTTCCT, with 1.41.

For the sequence CGACGACCGT, the switch fluorescence ratio stood at 1.08.

On to TAATAAGGGA, for which the switch fluorescence ratio amounted to 1.02.

Turning to CGCCATACTT, the switch fluorescence ratio is 4.53. Then GGCTTATTCG, with 1.01; and CCTCTGGCCA, with 3.37; and ATAAAGGTAC, with 0.984. Turning to CGATTGGCGA, the switch fluorescence ratio is 1.03. AGCTTCCACC: the switch fluorescence ratio was determined as 2.22. Then GTACTACGTT, with 0.988; and GCAAGGTTGG, with 0.978; and GAACTGCTTC, with 0.986. Then ATGACGTCTA, with 0.968. TCAGCCAGTC: the switch fluorescence ratio was 1.03. Then TGGGTTTTCG, with 0.978; and TTGGTCCTCC, with 1.01. Then ATAACACCGC, with 1.19; and AAAGCAGCGC, with 0.993.

Consider TCCCTTGTTG, for which the switch fluorescence ratio is 1.05. Then AGAATTAGG, with 0.932; and TAGTTGTCA, with 0.971. TAGAGGGCG: the switch fluorescence ratio was 0.943. Then TGTGTCGAAA, with 0.998.

As to GACACAAAGA, the switch fluorescence ratio is 1.69. In the case of CATGGTGACG it was 0.955; in that of ATTACGTGC, 1.01. In the case of AGCCTTATCG, the switch fluorescence ratio is 1.01. Then CACAAGGGGG, with 0.981; and CTCTAGGAGG, with 0.962.

With GAACTAATTT, the switch fluorescence ratio came out at 0.983. Then CGGATAATGA, with 0.99; and GTGCCTTTGA, with 0.983; and TGATTTTACT, with 1.02.

With TTCACGCCG, the switch fluorescence ratio was 1.09. Then CTCAAAGTGT, with 0.993; and GGTCCCACTA, with 1.01. On to ACAGCTGGGC, for which the switch fluorescence ratio came to 0.98. In the case of CGGCGTGGGC it was 0.997; in that of GTTGGAAGGA, 0.958; in that of GTCGTTCATA, 0.995. Then CATCACTTT, with 1.06; and CCGCGGAGTC, with 1.43; and AGAAGGCTAA, with 0.993. In the case of CTATGATTCT it was 0.995. On to TTCCACACTG, for which the switch fluorescence ratio came out at 1.02. In the case of TCAGCCCTA it was 0.984; in that of TATGACGCTG, 1.01. In the case of GGGTAGCGGC it was 1.04; in that of ATGTCAAGAC, 1.68; in that of GTAATTCATT, 0.946. As to AACCGAGTGT, the switch fluorescence ratio was 0.997.

As to CGATACGTAG, the switch fluorescence ratio came to 1.05. Turning to TATTCTGTA, the switch fluorescence ratio came to 1.01. With CGCAAGTT, the switch fluorescence ratio came out at 1.41.

TTAGTTCTTT: the switch fluorescence ratio was found to be 1.03.

As to CTTCCCACAG, the switch fluorescence ratio is 1.75. Then AGAACGGGAC, with 1.21; and TACGTGGCT, with 0.973. As to GCATATGCTT, the switch fluorescence ratio was determined as 1.01. Then TCAAGCCGAC, with 1.05. In the case of GTAAAGCTTC, the switch fluorescence ratio came out at 0.972. ATAAAACTGA: the switch fluorescence ratio came out at 1.01. In the case of ATTTGGCAAT it was 1.02. Then GAGCTTACGA, with 1.13; and TCCAATCGAC, with 1.29; and GGACCATGAA, with 1.01. Then AGGAAGAATG, with 1.01.

As to GATAGGTGCG, the switch fluorescence ratio is 1.03.

As to AAAGGGGCCT, the switch fluorescence ratio is 1.03.

AAAATGACTG: the switch fluorescence ratio worked out at 1.

Regarding CAACCCCCAC, the switch fluorescence ratio was 1.45. In the case of GGAACTTTAA it was 1.03; in that of CCGCTTGTCT, 1.05. As for TCTCGTTGAC, the switch fluorescence ratio amounted to 3.3. Then GTTAGAATAG, with 1.01.

For the sequence TAACGCGAAG, the switch fluorescence ratio is 1.03. Then CATTGAAGGC, with 0.986. Then ATCGCTGGCC, with 1.02; and TCTCTGCACG, with 1.72.

AACTGAATAC: the switch fluorescence ratio was 1.6. Consider ATGATGACAA, for which the switch fluorescence ratio was 0.995. Take GCCAGGCCAG: the switch fluorescence ratio was 0.994. In the case of AAGAGCAGTG it was 1.05; in that of GGGTCGAACT, 0.961; in that of AGTAGGTCTA, 0.918. In the case of ATATAAGCAT it was 1.05; in that of ATTGACTTCT, 1.02.

In the case of TTAGTAAC, the switch fluorescence ratio is 0.99. In the case of AGCTCAATGA it was 0.976.

GCCTTGAATC: the switch fluorescence ratio amounted to 0.979. Then AGGCCGCATA, with 2.41; and GGGTGGGAAA, with 0.932.

TAGTTTTAAG: the switch fluorescence ratio is 1.02. In the case of GCGCCAGAGA it was 1.02; in that of CATAAATAGG, 1; in that of GCAGCCGGTG, 1.03. Then TATAGCCTGG, with 1.01; and GATCAAGCC, with 1.03. In the case of CGGTATTCAA it was 1; in that of AAGGGCTGG, 1.06; in that of TCCATCGAGC, 1.02. Consider GGAGAGGTAA, for which the switch fluorescence ratio was 0.998.

As to ATATGTCAG, the switch fluorescence ratio came to 1.04. In the case of CTCACCCTTT it was 1.24; in that of GCAAATGAGG, 0.957; in that of TATGGGCCAT, 1.26.

Take TAGCCTGCAT: the switch fluorescence ratio is 0.972.

AAGTCACCAC: the switch fluorescence ratio amounted to 1.05. Consider AAAAAGCGTC, for which the switch fluorescence ratio amounted to 1.09. Then ACTTCCGGTC, with 1.26.
